Reference: PubChem BioAssay (NCI)
Some compounds were tested as several samples or in several runs, with calls that do not always agree.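 For each line, cells grew in 96-well plates with the test compound present at a single concentration for 48 hours.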 For part of its entries the source gives two or more results. The list is limited to them. Rule for the calls: active = growth percent below 10; inactive = the rest. The source may hold further records. The screen tested this drug many times, at its own concentration, as given; each value is one run. Additions like (4×) say how often a value occurs here.

System: SNB-19 CNS
Test: NCI-60 one-dose screen, 48 h (100 = growth as untreated, 0 = no growth, -100 = all killed)
Details: 0.25 µM

Q: How did the growth (runs of 2006) turn out when `COc1cccc2c1C(=O)c1c(O)c3c(c(O)c1C2=O)C[C@@](O)(C(=O)CO)C[C@@H]3OC1CC(N)C(O)C(C)O1` (stereo not given in full) was run?
A: Its growth is “active: 8.07%, 9.72%”.

Q: And the growth (runs of 2007)?
A: Its growth is “inactive: 14, 18.6, 19, 16.2, 17.4, 15 (2×), 35.4, 24.3, 36.3, 30.3, 20.5, 15.3, 24.5, 39.8, 36.6, 27.8, 13.1, 14.2, 23.9, 17 (2×), 29.8, 15.9, 19.2, 24.2, 23.1, 26.3, 64.5, 56.7, 38.7, 20.7, 20.4, 17.1, 21.2, 23.4% and active: 8.29%, 9.46%, 8.68%”.

Q: What about the growth (runs of 2008) of the same compound?
A: The growth was “inactive: 27.1, 18, 21.5 (2×), 16.1 (2×), 49.2, 31.6, 24.3, 25.8, 33.2, 28.8, 20.5 (2×), 21.9, 27.8, 10.1, 31.9, 14.6 (2×), 11.2, 17.3 (2×), 27.9, 26.5, 31.1, 29.7, 20.2, 86, 16.7, 10.4, 14 (2×), 14.8, 25.2, 25.5, 49.7, 21, 10.6, 21.6, 17.4, 29.3, 16.3, 41.8, 19, 23.3% and active: 9.1, -2.16, 9.27, 9.21, 8.3%”.

Q: And the growth (runs of 2009)?
A: The growth was “inactive: 22.5, 20.3, 31.5, 45, 13.3 (2×), 17.1, 21.7, 25.5, 26.5 (2×), 30.5, 31.7, 21.9 (3×), 34.5, 36.9, 24.7, 17.8, 20.6, 23.1, 24.6, 21.8, 32.4, 16.7, 22.3, 28.4, 24.8, 29.6, 33.4, 10.7, 30.3, 19.2, 13.4 (2×), 29.7, 12.3, 12.1, 10.1, 27.7, 14.1, 20.1, 22.1, 13.2, 18.2, 18.3, 30.2, 41.9, 19.5 (2×), 18.9, 32.5, 26.9, 19.9, 19.8, 33.5, 23.8% and active: -3.39, 9.49, -8.11, 9.28, 5.39%”.

Q: What about the growth (runs of 2010) of the same compound?
A: The growth was “inactive: 18.2, 26.6 (2×), 36, 35.7, 30.3, 39.7, 25.4 (2×), 24 (2×), 31.2, 31.5, 28.3, 25.2, 22.4, 27, 21.7 (3×), 24.4, 26.3, 31.8, 26.8, 27.9, 24.8 (2×), 18, 39.5, 37, 23.2, 30.2, 20.6, 22.6, 17.2, 24.2, 19.2, 25.6, 23.3, 28, 21.5, 33, 31.6, 27.1, 25.5 (2×), 29.5, 25.7, 24.1 (2×), 26.7, 29.6, 27.4%”.

Q: And the growth (runs of 2011)?
A: The growth was “inactive: 27, 26.7 (2×), 30.3 (3×), 30.7 (2×), 35.3 (2×), 26.6, 27.1, 32, 15.9, 31.2, 26.9 (3×), 28.4, 24.7, 26.8 (2×), 27.9, 32.1, 28.9 (2×), 24.8, 29.3, 35.9, 30.2, 29.1, 31.3, 27.3, 26 (3×), 20.9 (2×), 23.2, 24.2 (2×), 22.3, 21.5, 18.2, 25.1, 17.4, 23.8, 20.4, 22.1, 25, 21.2, 25.8, 25.2, 28, 27.7, 26.2, 28.2, 27.8% (2×)”.

Q: And the growth (runs of 2012)?
A: Its growth is “inactive: 25.9, 20.2, 33.3 (2×), 33 (2×), 31.4 (2×), 36.9, 35.8, 40.3 (3×), 43.6, 26.9, 27.6, 27.9 (2×), 25.8 (2×), 30.7 (2×), 30.9, 37.1, 38.6, 34.7, 31.3 (2×), 33.8, 44.6, 48.1, 51.7, 48.7, 49.4, 49.3, 37.7, 38, 30.6, 47.6, 43.4, 35.5, 20 (2×), 41.1, 35, 36.4, 28 (3×), 33.2, 35.2, 38.4, 41.2, 39.2 (2×), 44.1, 23.2, 32.9, 37.3, 39.1, 47, 43.7, 46.3, 34.2, 38.5, 34, 25.6, 33.4, 36, 36.6%”.

Q: What about the growth (runs of 2013) of the same compound?
A: Its growth is “inactive: 33.7, 26.1, 26.3, 30.6, 33.4, 29.3, 37, 31, 43.4, 38.3, 45.7, 52.4, 56.6, 52.3, 46, 60.5, 48.3, 38.8, 44.4, 36.3, 34.5, 45.5, 37.8, 37.4, 40.9, 35.8, 38.5, 30.7, 24.5, 25.7, 27, 35.7, 36.4, 32.4, 29.1, 35.1, 39.8, 34.3, 32.2, 39, 36.1, 40.5, 15.3, 20.8, 24.7, 16, 25.6, 36, 27.9, 16.7 (2×), 27.2, 32.3, 25.5, 10.5, 21.1, 23.7, 17, 18.8, 24.9, 30.4, 21.4, 12.7, 27.4, 12.6% and active: -7.15%, 7.88%, 1.81%”.

Q: And the growth (runs of 2014)?
A: Its growth is “inactive: 27.9, 30, 21.7, 12.1, 14.5 (3×), 16.8 (2×), 12.9, 13.9, 19.2, 16 (2×), 13.6, 22.5 (2×), 21.6, 21.4 (2×), 25.8, 23.8, 24.7, 18.3 (2×), 18.2, 18.9, 14.8, 13.3, 13.4, 18.8 (2×), 18.4, 13.1 (3×), 14.2, 16.4, 19 (2×), 18.6 (2×), 10.8, 13.2, 16.2, 17.8, 21.2, 20.5, 26.1, 22.1, 13.7, 16.1, 15.4, 15, 20.3, 24.8, 17.2% and active: 8.16, -8.08, -14.9, -6.77, -6.69, 2.78, 9.92, 7.93, 9.04, 9.77%”.

Q: What about the growth (runs of 2015) of the same compound?
A: Its growth is “inactive: 11.4, 25.8, 45.7, 13.2 (2×), 15, 16.4 (3×), 17.8, 26, 26.1, 14.9, 17.2, 25.4, 20, 16.6 (2×), 12.6, 23.8, 23.1, 19.5 (3×), 17.3 (2×), 17.6, 19.3, 15.9, 28.7, 18.8 (2×), 19, 23.2, 20.8, 21.3, 24.7, 18.6, 18.3, 13 (2×), 22.2, 19.8, 12.1 (2×), 21.5, 20.2, 14.4, 11.2, 21.6 (2×), 27.1, 20.7, 11, 21.2, 16.7, 19.2, 12.7, 14.2, 19.9, 20.1, 27.3, 20.3, 29.6% and active: 8.61, 7.52, 9.65 (2×), 8.78, 7.39%”.

Q: And the growth (runs of 2016)?
A: Its growth is “inactive: 22.6, 14.8 (2×), 24, 25.6, 26.7 (2×), 20.9 (2×), 20.7, 20.2 (2×), 21.9, 22.7 (2×), 18.4 (2×), 18.2 (2×), 18.9, 22.3 (2×), 28.9, 29.6, 24.1, 27.8, 31.2, 22.1 (2×), 19.9, 26.5, 22.4, 14.5, 19.6, 16.2, 16.4, 13.7, 19, 14.6, 20.1, 13.6, 20.4, 14.7, 19.3 (2×), 16, 15.9, 23.1, 17 (2×), 19.8, 15.4, 19.2, 28.2, 25, 20.8, 20 (3×), 21.6 (2×), 17.6 (2×), 25.7, 26.9, 28.5, 23.9, 21.5, 20.3, 12, 12.7, 17.1% and active: 9.61%”.

Q: And the growth (runs of 2017)?
A: The growth was “inactive: 18.3 (2×), 19.2 (2×), 20.3, 16.8 (2×), 18.2 (2×), 17.4, 15.4 (5×), 13.9, 13.4 (3×), 15.9 (2×), 14 (2×), 12.6, 12.7 (2×), 13.7, 11.2, 10.9, 14.4, 14.7 (3×), 13.3 (3×), 16.4, 14.6 (2×), 13, 13.1 (2×), 17 (2×), 16.1, 17.1, 16.6 (2×), 16.7 (3×), 17.3, 19.3, 18 (2×), 18.4 (2×), 14.5 (5×), 20, 20.4, 16.2, 14.1, 20.2, 20.5, 15%”.

Q: What about the growth (runs of 2018) of the same compound?
A: The growth was “inactive: 12.3, 14.6 (2×), 11.8, 12 (2×), 14, 13.1, 13.2 (2×), 14.1, 16 (2×), 15.4, 19.5 (2×), 23.7, 19.2 (2×), 19.3, 19.6 (2×), 18.2 (3×), 14.2, 18, 13.7, 18.4, 18.3 (2×), 21.2, 20.3, 17.6, 20.4, 21, 21.3, 21.6, 20.2, 15.3, 20.9, 22.3, 23.6, 21.5, 24.8, 23.8, 18.6, 19.8, 16.4, 17.8, 16.6, 17.1%”.

Q: And the growth (runs of 2019)?
A: The growth was “inactive: 11.9 (2×), 14.2 (2×), 11.7 (2×), 11.8, 14.7 (2×), 13.6 (2×), 16, 12.6 (4×), 12.2, 14.8 (2×), 18.2, 13.9 (2×), 13.2, 12.1, 12.7, 15.3 (3×), 13.4 (2×), 14.1, 15.4, 17, 17.8, 16.7, 12.3, 14, 15, 16.1 (2×), 14.5, 14.6, 10.4% and active: 9.75, 9.04, 9.69, 9.73, 9.33%”.

Q: What about the growth (runs of 2020) of the same compound?
A: The growth was “inactive: 12.6, 21.6, 20.9, 20.1, 23, 22.6, 19.9 (2×), 10.1, 13.1, 10.6, 11.3, 14.2, 16.1, 20.2, 14.8, 14.9, 13.7, 13.3, 14.7%”.
